# The whole screen tested about 360,000 compounds, of which about 25,000 (6.9%) were called active. The shares of active, inactive and inconclusive entries below differ from those in the screen. The call rests on the fitted dose curve; in most records, active means well fitted inhibition curve with a large enough effect; inconclusive means small, poorly fitted or top-dose-only effect; inactive means flat fitted curve, though single readings scatter. Potencies of inconclusive entries are doubtful fits and often do not repeat.
# Target: Luciferin 4-monooxygenase (Photinus pyralis) (UniProt P08659)
# Sequence of UniProt P08659 (P08659 whole entry, looked up): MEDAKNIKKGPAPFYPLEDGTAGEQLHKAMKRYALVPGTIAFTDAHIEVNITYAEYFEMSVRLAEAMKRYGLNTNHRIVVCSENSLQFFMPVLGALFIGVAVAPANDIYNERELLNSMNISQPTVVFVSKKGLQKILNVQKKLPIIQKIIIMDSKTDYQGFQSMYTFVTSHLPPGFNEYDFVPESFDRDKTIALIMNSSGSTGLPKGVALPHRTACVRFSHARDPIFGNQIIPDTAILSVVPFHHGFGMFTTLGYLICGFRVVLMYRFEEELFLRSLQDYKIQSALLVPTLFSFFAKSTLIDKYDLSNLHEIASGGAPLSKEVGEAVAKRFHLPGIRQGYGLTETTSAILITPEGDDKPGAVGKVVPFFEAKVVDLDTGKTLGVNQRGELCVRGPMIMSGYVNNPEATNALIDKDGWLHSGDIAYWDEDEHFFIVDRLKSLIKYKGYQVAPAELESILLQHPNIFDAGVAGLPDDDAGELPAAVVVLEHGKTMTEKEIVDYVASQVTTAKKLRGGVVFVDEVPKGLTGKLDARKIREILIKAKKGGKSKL
# Assay: qHTS profiling assay for firefly luciferase inhibitor/activator using purifed enzyme and Km concentrations of substrates (counterscreen for miR-21 project); further: nearly all actives have a fitted effect of over 55% in size
# Conditions: purified FLuc, luminescence inhibition; series mostly up to 57.5 µM
# In short: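 Purified P. pyralis luciferase, 10 nM final, with Km-level 10 uM D-luciferin and 10 uM ATP in 50 mM Tris acetate pH 7.5, 10 mM Mg acetate, 0.01% Tween-20, 0.05% BSA; 6-point qHTS titration about 60 µM downward; luminescence read.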
# Potency means the concentration at half of the fitted maximal effect; tags describe the fitted curve by direction and shape.
row,Compound,Potency
1,CSc1ccccc1-c1nnc(-c2ccc(Cl)cc2)o1,active: 5.36 µM
2,Cc1ccc(-c2nc3cc(Cl)ccc3o2)cc1NC(=O)c1cc2ccccc2o1,"inconclusive: 15.1 µM [inhibitor, partial curve]"
3,COc1ccc(NC(=O)C2CC(=O)N/C(=N/NC(=O)c3ccc(Cl)cc3)S2)cc1 (centres undefined),"inconclusive: 23.9 µM [inhibitor, single point]"
4,Cc1cc(-c2ccc(S(=O)(=O)Nc3cccc(C(F)(F)F)c3)s2)on1,"inconclusive: 21.3 µM [inhibitor, partial curve, poor fit]"
5,CC(C)Sc1ncc(Cl)c(C(=O)Nc2nc3ccc(S(C)(=O)=O)cc3s2)n1,"inconclusive: 9.53 µM [inhibitor, partial curve]"
6,COc1ccc(NC(=O)c2c(N)no[n+]2[O-])c(OC)c1,inactive
7,CCOC(=O)c1ccc(NC(=O)C2=C(C)C(=O)OC23CCCCCC3)cc1,inactive
8,CN(C(=O)CSc1nc2ccc(NC(=O)COc3ccc(F)cc3)cc2s1)c1ccccc1,inactive
9,O=C(Cc1c(Cl)cccc1Cl)OCc1ccccn1,"inconclusive: 23.9 µM [inhibitor, single point]"
10,CC(C)c1cccc(C2=CC(=O)C[C@H](c3ccc4c(c3)OCO4)C2)c1,inactive
11,Cc1ccc(N=Nc2[nH]c3ccccc3c2O)cc1,"inconclusive: 4.78 µM [inhibitor, full curve]"
12,O=C(NC(=S)Nc1cccc(F)c1)c1cccc([N+](=O)[O-])c1,"inconclusive: 30.1 µM [inhibitor, partial curve, poor fit]"
13,Cc1cc(C(=O)CSc2nc3ccccc3n2CCC#N)c(C)n1Cc1cccs1,"inconclusive: 2.69 µM [inhibitor, full curve]"
14,CCOC(=O)c1c(C)[nH]c(C)c1S(=O)(=O)N(C)CC(=O)Nc1cccc(Cl)c1C,inactive
15,N#C/C(=C/c1cn(CC(=O)O)c2ccccc12)C(=O)Nc1ccccc1,active: 15.1 µM
16,C=CCn1c(=O)c2ccccc2n2c(SCC(=O)O)nnc12,inactive
17,COc1cc(/C=C2\SC(=O)N(c3ccccc3Cl)C2=O)cc([N+](=O)[O-])c1O,"inconclusive: 23.9 µM [inhibitor, partial curve, poor fit]"
18,CCOc1ccc(NC(=O)CC2Nc3cccc4cccc(c34)NC2=O)cc1 (centres undefined),"inconclusive: 21.3 µM [inhibitor, partial curve, poor fit]"
19,CCN(CC)c1ccc(C(=O)Nc2cccc(F)c2)cc1,"inconclusive: 0.536 µM [inhibitor, partial curve, poor fit]"
20,Cc1cccc(-c2nc(SCc3cc(=O)c4cccc(F)c4[nH]3)n[nH]2)c1,"inconclusive: 37.9 µM [inhibitor, partial curve, poor fit]"
21,CN(Cc1nccs1)C(=O)C1CCC(=O)N(CCc2ccc(Cl)cc2)C1 (centres undefined),inactive
22,Cc1cnc(-c2nnc(N(C)C(=O)c3ccccn3)s2)cn1,"inconclusive: 23.9 µM [inhibitor, partial curve, poor fit]"

row,Compound,Potency
1,CCC(=O)Nc1ccc(C(=O)N/N=C/c2cc(Br)c(OC)cc2OC)cc1,"inconclusive: 2.39 µM [inhibitor, full curve]"
2,COc1ccc(NC(=O)COC(=O)c2cc(SC)ccc2Cl)c(OC)c1,inactive
3,Cc1ccnc(NCc2ccc(Br)cc2)c1,"inconclusive: 26.9 µM [inhibitor, single point]"
4,Cc1cc(Br)ccc1NC(=O)CNC(=O)CN(C)C1CCS(=O)(=O)C1 (centres undefined),inactive
5,O=C(Cc1ccccc1[N+](=O)[O-])OCN1C(=O)c2ccccc2C1=O,active: 9.53 µM
6,Cc1ccccc1OCCOc1cccc(/C=N/NC(=O)Cc2nnc(N)s2)c1,"inconclusive: 13.5 µM [inhibitor, partial curve]"
7,C/C(=N/N1CCN(c2ccccc2)CC1)c1cccc([N+](=O)[O-])c1,inactive
8,S=C(NCc1ccc2c(c1)OCO2)Nc1ccc(-c2nc3ccccc3[nH]2)cc1,"inconclusive: 19 µM [inhibitor, partial curve]"
9,COc1ccc(NC(=O)c2cc(C)no2)cc1,"inconclusive: 33.8 µM [inhibitor, partial curve, poor fit]"
10,CC1(C)CC(=O)c2sc(NC(=O)c3cccs3)nc2C1,active: 0.757 µM
11,CCOc1ccc(NC(=O)c2ccc3c(c2)N(Cc2ccc(F)cc2)C(=O)CS3=O)cc1 (centres undefined),"inconclusive: 37.9 µM [inhibitor, single point]"
12,COc1ccc(/C=N/NC(=O)c2cccnc2)c2ccccc12,"inconclusive: 21.3 µM [inhibitor, single point]"
13,O=C(NC(=S)Nc1ccc(N2CCCCC2)cc1)c1ccc2c(c1)OCCO2,"inconclusive: 33.8 µM [inhibitor, single point]"
14,Cc1ccnc(NC(=O)COC(=O)C23CC4CC(CC(C4)C2)C3)n1,"inconclusive: 12 µM [inhibitor, partial curve]"
15,CN(C(=O)COC(=O)CCCN1C(=O)c2cccc3cccc(c23)C1=O)C1CCS(=O)(=O)C1 (centres undefined),"inconclusive: 37.9 µM [inhibitor, single point]"
16,N/C(=N\c1nc2ccccc2o1)NC(=O)c1ccccc1NC(=O)c1ccccc1,inactive
17,COc1ccc(C(=O)Nc2cc3c(cc2Cl)OCCCO3)cc1,active: 9.53 µM
18,COc1ccccc1Cc1nc(-c2ccc(C)cc2)no1,"inconclusive: 19 µM [inhibitor, partial curve]"
19,O=C(NNC(=O)c1cc(-c2ccccc2Cl)nc2ccccc12)c1csc(N2CCOCC2)n1,"inconclusive: 23.9 µM [inhibitor, single point]"
20,Cc1ccc(S(=O)(=O)c2cn(CC(=O)Nc3ccccc3)c3ccc(F)cc3c2=O)cc1,"inconclusive: 21.3 µM [inhibitor, partial curve, poor fit]"
21,CCOC(=O)c1ccc2c(c1)sc1nc(-c3ccc(OCC)cc3)cn12,"inconclusive: 1.07 µM [inhibitor, partial curve, poor fit]"
22,CCN(CC)S(=O)(=O)c1ccc(Nc2ccc(-c3ccc4c(c3)OCCO4)nn2)cc1,active: 10.7 µM
